# Laboratory results as given in paper PMC9911399, “Two distinct binding modes provide the RNA-binding protein RbFox with extraordinary sequence specificity”.
# Substitutions are numbered along the chain they refer to; changes in the protein carry UniProt numbers. The list shows a part of the results.
# T1: RBFOX1 RRM (Homo sapiens, UniProt Q9NWB1 109-208)
# T1 sequence: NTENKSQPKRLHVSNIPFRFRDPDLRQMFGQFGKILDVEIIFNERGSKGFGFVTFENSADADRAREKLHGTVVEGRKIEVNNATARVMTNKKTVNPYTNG
# B1: GAAUACA (DNA:RNA)
# RNA: GGGAGACCGGAAUUCAGAUUGUCCGAAUACAUUAAAUCCCGUCGUAGCCACCA
# DNA 1: CAATCTGAATTCCGGTCTCCC
# DNA 2: TGGTGGCTACGACGGGATT
# B2: UAGUCAG (DNA:RNA)
# RNA: B1 RNA with G25U, A27G, A29C, C30A, A31G
# DNA 1: CAATCTGAATTCCGGTCTCCC
# DNA 2: TGGTGGCTACGACGGGATT
# B3: ACGAGCG (DNA:RNA)
# RNA: B1 RNA with G25A, A26C, A27G, U28A, A29G, A31G
# DNA 1: CAATCTGAATTCCGGTCTCCC
# DNA 2: TGGTGGCTACGACGGGATT
# B4: AAAAGGA (DNA:RNA)
# RNA: B1 RNA with G25A, U28A, A29G, C30G
# DNA 1: CAATCTGAATTCCGGTCTCCC
# DNA 2: TGGTGGCTACGACGGGATT
# B5: CACUCCG (DNA:RNA)
# RNA: B1 RNA with G25C, A27C, A29C, A31G
# DNA 1: CAATCTGAATTCCGGTCTCCC
# DNA 2: TGGTGGCTACGACGGGATT
# B6: UAAGCCG (DNA:RNA)
# RNA: B1 RNA with G25U, U28G, A29C, A31G
# DNA 1: CAATCTGAATTCCGGTCTCCC
# DNA 2: TGGTGGCTACGACGGGATT
# B7: CUUCGCU (DNA:RNA)
# RNA: B1 RNA with G25C, A26U, A27U, U28C, A29G, A31U
# DNA 1: CAATCTGAATTCCGGTCTCCC
# DNA 2: TGGTGGCTACGACGGGATT
# B8: UUGUUGA (DNA:RNA)
# RNA: B1 RNA with G25U, A26U, A27G, A29U, C30G
# DNA 1: CAATCTGAATTCCGGTCTCCC
# DNA 2: TGGTGGCTACGACGGGATT
# B9: AGAUGAU (DNA:RNA)
# RNA: B1 RNA with G25A, A26G, A29G, C30A, A31U
# DNA 1: CAATCTGAATTCCGGTCTCCC
# DNA 2: TGGTGGCTACGACGGGATT
# B10: GUGACGG (DNA:RNA)
# RNA: B1 RNA with A26U, A27G, U28A, A29C, C30G, A31G
# DNA 1: CAATCTGAATTCCGGTCTCCC
# DNA 2: TGGTGGCTACGACGGGATT
# B11: CCCGCUC (DNA:RNA)
# RNA: GGGAGACCGGAAUUCAGAUUGUCCCCCGCUCUUAAAUCCCGUCGUAGCCACCA
# DNA 1: CAATCTGAATTCCGGTCTCCC
# DNA 2: TGGTGGCTACGACGGGATT
# B12: AGUUUCC (DNA:RNA)
# RNA: B1 RNA with G25A, A26G, A27U, A29U, A31C
# DNA 1: CAATCTGAATTCCGGTCTCCC
# DNA 2: TGGTGGCTACGACGGGATT
# B13: AGGUACC (DNA:RNA)
# RNA: B1 RNA with G25A, A26G, A27G, A31C
# DNA 1: CAATCTGAATTCCGGTCTCCC
# DNA 2: TGGTGGCTACGACGGGATT
# B14: UGAUAGG (DNA:RNA)
# RNA: B1 RNA with G25U, A26G, C30G, A31G
# DNA 1: CAATCTGAATTCCGGTCTCCC
# DNA 2: TGGTGGCTACGACGGGATT
# B15: ACCCGGA (DNA:RNA)
# RNA: B11 RNA with C25A, G28C, C29G, U30G, C31A
# DNA 1: CAATCTGAATTCCGGTCTCCC
# DNA 2: TGGTGGCTACGACGGGATT
# B16: CGAGUGU (DNA:RNA)
# RNA: B11 RNA with C26G, C27A, C29U, U30G, C31U
# DNA 1: CAATCTGAATTCCGGTCTCCC
# DNA 2: TGGTGGCTACGACGGGATT
# B17: CCACACG (DNA:RNA)
# RNA: B1 RNA with G25C, A26C, U28C, A31G
# DNA 1: CAATCTGAATTCCGGTCTCCC
# DNA 2: TGGTGGCTACGACGGGATT
# B18: UCCUUUG (DNA:RNA)
# RNA: B11 RNA with C25U, G28U, C29U, C31G
# DNA 1: CAATCTGAATTCCGGTCTCCC
# DNA 2: TGGTGGCTACGACGGGATT
# B19: UGUCUAA (DNA:RNA)
# RNA: B1 RNA with G25U, A26G, A27U, U28C, A29U, C30A
# DNA 1: CAATCTGAATTCCGGTCTCCC
# DNA 2: TGGTGGCTACGACGGGATT
# B20: AUACAUU (DNA:RNA)
# RNA: B1 RNA with G25A, A26U, U28C, C30U, A31U
# DNA 1: CAATCTGAATTCCGGTCTCCC
# DNA 2: TGGTGGCTACGACGGGATT
# B21: AGGGCGA (DNA:RNA)
# RNA: B11 RNA with C25A, C26G, C27G, U30G, C31A
# DNA 1: CAATCTGAATTCCGGTCTCCC
# DNA 2: TGGTGGCTACGACGGGATT
# B22: CUCACCA (DNA:RNA)
# RNA: B11 RNA with C26U, G28A, U30C, C31A
# DNA 1: CAATCTGAATTCCGGTCTCCC
# DNA 2: TGGTGGCTACGACGGGATT
# B23: UGUGUGG (DNA:RNA)
# RNA: B11 RNA with C25U, C26G, C27U, C29U, U30G, C31G
# DNA 1: CAATCTGAATTCCGGTCTCCC
# DNA 2: TGGTGGCTACGACGGGATT
# B24: UUAGGGC (DNA:RNA)
# RNA: B11 RNA with C25U, C26U, C27A, C29G, U30G
# DNA 1: CAATCTGAATTCCGGTCTCCC
# DNA 2: TGGTGGCTACGACGGGATT
# B25: GACCGUG (DNA:RNA)
# RNA: B11 RNA with C25G, C26A, G28C, C29G, C31G
# DNA 1: CAATCTGAATTCCGGTCTCCC
# DNA 2: TGGTGGCTACGACGGGATT
# B26: UAAACAU (DNA:RNA)
# RNA: B1 RNA with G25U, U28A, A29C, C30A, A31U
# DNA 1: CAATCTGAATTCCGGTCTCCC
# DNA 2: TGGTGGCTACGACGGGATT
# B27: UGUCCGU (DNA:RNA)
# RNA: B11 RNA with C25U, C26G, C27U, G28C, U30G, C31U
# DNA 1: CAATCTGAATTCCGGTCTCCC
# DNA 2: TGGTGGCTACGACGGGATT
# B28: GAGGAGG (DNA:RNA)
# RNA: B1 RNA with A27G, U28G, C30G, A31G
# DNA 1: CAATCTGAATTCCGGTCTCCC
# DNA 2: TGGTGGCTACGACGGGATT
# B29: CGUGAAA (DNA:RNA)
# RNA: B11 RNA with C26G, C27U, C29A, U30A, C31A
# DNA 1: CAATCTGAATTCCGGTCTCCC
# DNA 2: TGGTGGCTACGACGGGATT
# B30: ACCCCAU (DNA:RNA)
# RNA: B11 RNA with C25A, G28C, U30A, C31U
# DNA 1: CAATCTGAATTCCGGTCTCCC
# DNA 2: TGGTGGCTACGACGGGATT
# B31: AGUGGCC (DNA:RNA)
# RNA: B11 RNA with C25A, C26G, C27U, C29G, U30C
# DNA 1: CAATCTGAATTCCGGTCTCCC
# DNA 2: TGGTGGCTACGACGGGATT
# Biological target: T1, RBFOX1 RRM
# Experiment: EMSA; HiTS-Eq, 1 nM pool, 10 min; buffer printed only for the single-RNA assays: 10 mM Tris pH 7.5, 150 mM NaCl, 3.4 mM EDTA, 0.001% NP-40, 30 C
# Settings: tags: His6 N-terminal (pET28a); label: 5' 32P
# In short: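 A pool of RNA with 7 randomized nucleotides, 5′-radiolabelled and with DNA-annealed flanks, was equilibrated at 1 nM for 10 min in 50 µL with purified RbFox RRM, wild type or mutant, across increasing protein concentrations. Free RNA was separated by 8% native PAGE, excised, reverse-transcribed, barcoded by PCR and sequenced. Relative association constants were obtained from read-count changes of each RNA species versus the control reaction and normalised to the cognate motif.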
row,Binder,binding signal
1,B1,0.00428 KA relative to UGCAUGU
2,B2,0.0126 KA relative to UGCAUGU
3,B3,0.014 KA relative to UGCAUGU
4,B4,0.00105 KA relative to UGCAUGU
5,B5,0.00227 KA relative to UGCAUGU
6,B6,0.00658 KA relative to UGCAUGU
7,B7,0.0136 KA relative to UGCAUGU
8,B8,0.0329 KA relative to UGCAUGU
9,B9,0.00975 KA relative to UGCAUGU
10,B10,0.0168 KA relative to UGCAUGU
11,B11,0.00969 KA relative to UGCAUGU
12,B12,0.0149 KA relative to UGCAUGU
13,B13,0.00718 KA relative to UGCAUGU
14,B14,0.0108 KA relative to UGCAUGU
15,B15,0.00307 KA relative to UGCAUGU
16,B16,0.018 KA relative to UGCAUGU

row,Binder,binding signal
1,B17,0.0022 KA relative to UGCAUGU
2,B18,0.0195 KA relative to UGCAUGU
3,B19,0.00962 KA relative to UGCAUGU
4,B20,0.000451 KA relative to UGCAUGU
5,B21,0.0185 KA relative to UGCAUGU
6,B22,0.00172 KA relative to UGCAUGU
7,B23,0.0178 KA relative to UGCAUGU
8,B24,0.0028 KA relative to UGCAUGU
9,B25,0.0127 KA relative to UGCAUGU
10,B26,0.00189 KA relative to UGCAUGU
11,B27,0.0131 KA relative to UGCAUGU
12,B28,0.0185 KA relative to UGCAUGU
13,B29,0.00508 KA relative to UGCAUGU
14,B30,0.000316 KA relative to UGCAUGU
15,B31,0.0147 KA relative to UGCAUGU
